Source: a protein production outcome set (Wang et al. 2014)

Assay: label from the status in PepcDB records

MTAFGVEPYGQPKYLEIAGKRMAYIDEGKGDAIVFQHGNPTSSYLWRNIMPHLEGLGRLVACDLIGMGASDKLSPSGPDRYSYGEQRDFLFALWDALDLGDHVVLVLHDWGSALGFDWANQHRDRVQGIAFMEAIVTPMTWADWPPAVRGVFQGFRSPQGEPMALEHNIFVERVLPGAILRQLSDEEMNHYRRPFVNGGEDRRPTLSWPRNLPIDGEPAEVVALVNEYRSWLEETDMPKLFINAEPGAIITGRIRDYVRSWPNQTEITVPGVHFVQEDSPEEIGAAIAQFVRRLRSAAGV
protein production: not failed
